Values marked as one replicate rest on one cluster of the flow cell; about a third of the high ones do not repeat.
Each sequence was assayed on ATP (assay: switch fluorescence ratio, 500 uM ATP over buffer (Cy3 cluster intensity, sum of 5 cycles each) (fold (ratio)); higher = stronger signal-on switching upon ATP binding; sequences stand for … in TCGTCGGCAGCGTCAGATGTGTATAAGAGACAGTTTTTTTTTTTTTTTTTTTTTTTTT…TC). Settings: aptamer strand: ATP DNA aptamer (quencher-CACCTGGGGGAGTATTGCGGAGGAAGG + anchor), 100 nM annealed; ATP concentration: 500 uM; one replicate.
In short: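 Clusters with intensities outside 100-1000 RFU were excluded. The remaining Cy3-labelled switching-strand clusters on a modified Illumina MiSeq flow-cell had been annealed to 100 nM quencher-labelled ATP aptamer and imaged in selection buffer, then after 15 min with 500 uM ATP at 22 °C, for five cycles separated by NaOH stripping and re-annealing. The fluorescence ratio, averaged per switch-domain sequence, is each cluster's summed target-cycle Cy3 intensity over its summed buffer-cycle Cy3 intensity.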
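Also: ATP exposure 15 min at 22 °C before imaging.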

| Sequence | switch fluorescence ratio |
| --- | --- |
| ATACTAAGGA | 0.995 |
| ATACTGGAG | 1.09 |
| ATACTTCAAG | 0.979 |
| ATACTTGATA | 0.979 |
| ATACTTGTTA | 0.959 |
| ATAGAAGCCT | 1.18 |
| ATAGAAGTGT | 1.01 |
| ATAGAATGC | 1.03 |
| ATAGACGGTC | 1.09 |
| ATAGACTTGA | 1.01 |
| ATAGAGCAGG | 1.21 |
| ATAGATGCAC | 1.03 |
| ATAGCATTTA | 1.05 |
| ATAGCCCCTG | 1.01 |
| ATAGCGTAAG | 0.998 |
| ATAGCGTGG | 1.01 |
| ATAGCGTTGG | 0.985 |
| ATAGCTATAG | 1.11 |
| ATAGGAGATT | 0.977 |
| ATAGGATGA | 0.991 |
| ATAGGCAATT | 1.04 |
| ATAGGCCAA | 1.03 |
| ATAGGCCGAG | 0.955 |
| ATAGGGGTTA | 1.02 |
| ATAGGTGGGA | 0.988 |

| Sequence | switch fluorescence ratio |
| --- | --- |
| ATAGGTTGCT | 0.981 |
| ATAGTAAGCA | 1.03 |
| ATAGTACTAG | 1.05 |
| ATAGTAGCTT | 0.98 |
| ATAGTATATA | 1.01 |
| ATAGTCAGCA | 0.998 |
| ATAGTCATGC | 1.01 |
| ATAGTGGGCT | 0.978 |
| ATAGTGTGAA | 0.942 |
| ATAGTTAAGA | 1.03 |
| ATAGTTACAA | 0.963 |
| ATATAATTG | 1.05 |
| ATATACCAAG | 1.04 |
| ATATACTGGG | 1.04 |
| ATATAGAACG | 1.04 |
| ATATAGGCAA | 1.13 |
| ATATCATAGC | 1 |
| ATATCATCTT | 0.974 |
| ATATCATGGA | 1.01 |
| ATATCGCCCT | 1.01 |
| ATATCGGGTT | 0.961 |
| ATATCTTGAC | 0.982 |
| ATATGAGATT | 0.999 |
| ATATGAGGTA | 0.956 |
| ATATGCCTTC | 0.961 |

| Sequence | switch fluorescence ratio |
| --- | --- |
| ATATGGAC | 1.01 |
| ATATGGAGCT | 0.993 |
| ATATGTACGG | 1.06 |
| ATATGTGAAA | 0.978 |
| ATATGTGTCG | 1.05 |
| ATATGTTGAT | 1.01 |
| ATATTATCGG | 0.97 |
| ATATTCGCAA | 3.73 |
| ATATTCTGTA | 0.99 |
| ATATTCTTCT | 0.984 |
| ATATTGTGT | 0.981 |
| ATATTGTTAC | 1.01 |
| ATATTTCTAT | 0.979 |
| ATATTTGTC | 0.996 |
| ATATTTTCC | 1.09 |
| ATCAAAAAAT | 0.981 |
| ATCAAAAGAC | 1.28 |
| ATCAAAAGG | 1.06 |
| ATCAAACCCC | 1.17 |
| ATCAAAGGCT | 0.968 |
| ATCAAAGGGT | 1.02 |
| ATCAAGGCGT | 0.991 |
| ATCAAGTATT | 1.02 |
| ATCAAGTTGT | 0.99 |
| ATCAATATTT | 0.993 |

| Sequence | switch fluorescence ratio |
| --- | --- |
| ATCAATGACA | 1.04 |
| ATCAATTGGG | 0.966 |
| ATCACCCCGG | 1.18 |
| ATCACGGCGA | 1.03 |
| ATCAGATGCG | 1.01 |
| ATCAGCGAGT | 0.989 |
| ATCAGCGGTA | 1.08 |
| ATCAGCGTTG | 0.991 |
| ATCAGGAGCA | 1.17 |
| ATCAGTACTT | 0.967 |
| ATCAGTGTGC | 1.11 |
| ATCATACAGC | 1.02 |
| ATCATAGTGC | 1.13 |
| ATCATATACT | 1.07 |
| ATCATCCATC | 1.03 |
| ATCATGGGT | 0.962 |
| ATCATGGGTC | 1.02 |
| ATCATGGTA | 0.992 |
| ATCATGGTTC | 1.02 |
| ATCATTAGCA | 1 |
| ATCATTTG | 0.977 |
| ATCCAAAGTG | 1.03 |
| ATCCACGGG | 1.13 |
| ATCCACTCTC | 1.03 |
| ATCCAGACGA | 1.06 |
